# Measurements as given in the supplement of paper PMC3334620.
# Whole data set: some 33,000 sequences, median “E-score (-0.5 to 0.5)” near -0.012, cut for the highest 2% near 0.29. This is one part of the list.
# Target: T1, Ybr033w (UniProt P38073)
# T1 sequence: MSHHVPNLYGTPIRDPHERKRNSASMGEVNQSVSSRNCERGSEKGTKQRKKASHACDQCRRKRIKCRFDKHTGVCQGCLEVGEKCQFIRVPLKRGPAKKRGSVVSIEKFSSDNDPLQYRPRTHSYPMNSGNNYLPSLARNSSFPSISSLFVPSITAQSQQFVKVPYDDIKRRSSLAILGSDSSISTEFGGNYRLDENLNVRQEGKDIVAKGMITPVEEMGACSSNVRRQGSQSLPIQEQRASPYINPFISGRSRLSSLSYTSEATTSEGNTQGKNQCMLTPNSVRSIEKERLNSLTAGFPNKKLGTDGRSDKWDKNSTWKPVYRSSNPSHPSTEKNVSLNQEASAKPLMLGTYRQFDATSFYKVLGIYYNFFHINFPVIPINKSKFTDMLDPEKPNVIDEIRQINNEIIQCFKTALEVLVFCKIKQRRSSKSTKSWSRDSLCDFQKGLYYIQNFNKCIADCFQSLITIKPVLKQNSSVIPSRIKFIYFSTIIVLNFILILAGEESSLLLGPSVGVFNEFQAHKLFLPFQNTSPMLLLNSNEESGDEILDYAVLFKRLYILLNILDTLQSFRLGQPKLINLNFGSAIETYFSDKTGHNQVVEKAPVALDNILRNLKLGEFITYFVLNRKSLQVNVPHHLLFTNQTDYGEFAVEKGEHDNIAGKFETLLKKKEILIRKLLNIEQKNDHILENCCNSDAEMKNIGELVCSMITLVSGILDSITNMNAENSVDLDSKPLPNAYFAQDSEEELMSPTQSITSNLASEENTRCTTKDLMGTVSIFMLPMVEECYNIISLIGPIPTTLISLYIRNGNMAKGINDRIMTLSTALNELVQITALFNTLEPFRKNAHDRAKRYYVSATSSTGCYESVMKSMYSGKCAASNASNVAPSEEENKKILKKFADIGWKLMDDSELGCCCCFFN
# Assay: PBM E-score (8-mer binding enrichment) (E-score (-0.5 to 0.5)); higher = stronger / more preferred TF binding; most listed sequences are background and not binding sites
# Conditions: protein concentration: 200 nM; construct: GST-full length
# In short: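 Full-length yeast transcription factors or their DNA-binding domains, GST-tagged and expressed with PURExpress, were applied at about 100-200 nM to universal all-10-mer Agilent arrays. These arrays had been made double-stranded by primer extension on fresh or once-stripped slides. Detection used fluorescent anti-GST, normalisation used masliner, and E-scores for ungapped eight-base words pooled with reverse complements came from the Universal PBM Analysis Suite.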
row,Sequence,PBM E-score
1,AGCTCGAT,0.0359
2,GAAGCTAA,0.0197
3,CTGTAAAA,0.15
4,GCTACTCC,0.123
5,ACAGTATA,0.0512
6,AAAAAATA,0.278
7,CGGCGAAG,-0.151
8,GTATTGAA,0.197
9,TATACCAA,0.141
10,AGTTCTCA,0.115
11,TCTGGCAA,0.0111
12,GCTATCAA,0.13
13,GTCTACCA,-0.00406
14,TGTCTCAA,-0.17
15,AACAAATC,0.315
16,CGCGCGTA,-0.0725
17,AGGTTATG,0.112
18,CTACGGCC,-0.241
19,TGAATGCA,0.152
20,CGTTCCCC,-0.225
21,CCGGAATC,-0.0781
22,CGGGGCAC,-0.319

row,Sequence,PBM E-score
1,ACGATTTA,0.36
2,GGAATCCA,0.0383
3,GGTAACGA,-0.159
4,ACGTATGA,0.131
5,GAAAGCTA,-0.071
6,GATTTTCA,0.205
7,AGGGGTAG,-0.155
8,AGACAGTA,0.0882
9,AACGTCTG,-0.0802
10,AATATCAT,0.294
11,ACTCAACT,0.126
12,TCCACAAA,0.131
13,AATCCTAA,0.0561
14,ACCCCTCC,-0.236
15,AAGCCACT,-0.153
16,CTAGCAAA,-0.00143
17,AAGGAGAT,0.0141
18,ACGAGACT,-0.127
19,CATTCGAC,-0.0432
20,CCGCAGGC,-0.0484
21,ACCCTACA,0.00649
22,AATTGGGC,0.0379

row,Sequence,PBM E-score
1,CCTAGTGC,-0.0965
2,AAGCAGAA,0.149
3,CGCCCCCA,-0.239
4,AACGCGGA,-0.00015
5,GCCGGGGA,-0.331
6,GGAGCCAA,-0.13
7,ATAGCATA,0.158
8,GCTACTAA,0.00875
9,ATTAGGGG,-0.222
10,ATGGTACA,0.119
11,AGGGGTTG,-0.029
12,GAAGAAGC,-0.103
13,TGCGACAA,-0.0037
14,ACCCGAAC,-0.0773
15,AGGAAGGG,-0.119
16,AAAAAAAA,0.353
17,ACTGTAGC,-0.0826
18,AATCTTGG,0.128
19,CGGCCGTA,-0.214
20,CTCTAGCA,-0.0957
21,CCGCCAGG,-0.402
22,CAGTGAGC,-0.177

row,Sequence,PBM E-score
1,TCCTCCCA,-0.165
2,CACCCACA,-0.189
3,CCACGGGA,-0.186
4,GATTATCC,0.396
5,TAGACCCA,-0.0171
6,AGGTACAC,-0.143
7,GCTCTCTA,-0.146
8,ATGCGATG,-0.0777
9,GCGTAAAA,0.276
10,ACGAGATG,-0.0859
11,CGTTGAAA,-0.0339
12,CTTTTAGC,0.0655
13,TCACCAAA,0.208
14,CCACTGAA,0.0758
15,AGCCGACC,-0.261
16,CATTAGCC,-0.0697
17,GCGAGCAA,0.0139
18,CTCTAAAC,0.0439
19,AACTCTAA,0.241
20,GGATGATA,0.124
